# Experimental data as given in the supplement of paper PMC4894684.
# Counter-ions that a name gives are not always drawn. ± gives the standard deviation of the averaged measurements. Hit rate of the full screen: of about 1,000 compounds, about 15 (2%) showed an effect of 50% or more. The list shows a part of the results.
# Test system: HFF
# Experiment: uninfected host cell viability relative to vehicle control; higher = less host cell toxicity
# Conditions: 5 µM; 72 h; oxygen 21 %
# 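Further: confluent HFF monolayers, run in parallel with the Toxoplasma growth screen as a host toxicity counterscreen.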
row,SMILES,uninfected host cell viability
1,Cc1nc(N)sc1CCN [Amthamine dihydrobromide],98.27 ± 0.58%
2,C[C@@H]1O[C@@H](O[C@H]2C[C@@H](O)[C@]3(CO)[C@H]4[C@H](O)C[C@]5(C)[C@@H](C6=CC(=O)OC6)CC[C@]5(O)[C@@H]4CC[C@]3(O)C2)[C@H](O)[C@H](O)[C@H]1O [Ouabain],62.2 ± 5%
3,C[C@@H](N)Cc1cnc[nH]1 [(R)-(-)- α-Methylhistamine dihydrobromide],89.841 ± 0.031%
4,N[C@@]1(C(=O)O)CC[C@@H](C(=O)O)C1,96.2 ± 4.8%
5,Cn1cc(C(=O)C(=O)N[C@H]2CN3CCC2CC3)c2ccccc21,83 ± 3.1%
6,C[C@H](N)Cn1ccc2cc(F)c(Cl)cc21 [Ro 60-0175 fumarate],87.5 ± 1.7%
7,CCN(CC)CCO[C@H]1CC[C@@]2(C)C(=CC[C@@H]3[C@@H]2CC[C@]2(C)C(=O)CC[C@@H]32)C1,104 ± 3.5%
8,CCCCC/C=C\C/C=C\C/C=C\C/C=C\CCCC(=O)Nc1ccc(O)cc1,81.6 ± 2%
9,CCNC(=O)[C@H]1O[C@@H](n2cnc3c(N)ncnc32)[C@H](O)[C@@H]1O,100 ± 4.7%
10,COc1cc2c(cc1OC)C1CC(=O)C(CC(C)C)CN1CC2 (centres undefined) [Tetrabenazine],88.8 ± 4%
11,CN(C(=O)Cc1ccccc1)C(CN1CCCC1)c1ccccc1 (centres undefined) [N-MPPP Hydrochloride],88.26 ± 0.26%
12,Cc1cc(SCc2sc(-c3ccc(C(F)(F)F)c(F)c3)nc2C)ccc1OCC(=O)O,101 ± 8.5%
13,Cc1[nH]c2ccc(Cl)cc2c1C1=CCNCC1,75.1 ± 2%
14,Oc1ccc2c3c1O[C@H]1c4oc5ccccc5c4C[C@@]4(O)[C@@H](C2)N(CC2CC2)CC[C@]314 [Naltriben mesylate],90.1 ± 4.9%
15,COc1ccc(C(=O)c2c(C)n(CCN3CCOCC3)c3cc(I)ccc23)cc1,93.8 ± 0.31%
16,NCc1cc(O)no1 [Muscimol],83 ± 4.4%
17,Cc1nnc2ccc(-c3cccc(C(F)(F)F)c3)nn12,88.4 ± 4.6%
18,CCCN(CCC)[C@@H]1CCc2c(OC)cccc2[C@@H]1C [(+)-UH 232 maleate],85.8 ± 2.9%
19,CO[C@]12C[C@@H](COC(=O)c3cncc(Br)c3)CN(C)[C@@H]1Cc1cn(C)c3cccc2c13 [Nicergoline],84.2 ± 4.1%
20,C[C@@]12N[C@@H](Cc3ccccc31)c1ccccc12 [(-)-MK 801 maleate],86.9 ± 2%
21,COc1ccc(C[C@H]2NC[C@H](O)[C@H]2OC(C)=O)cc1 [Anisomycin],52.6 ± 3.3%
22,NCCc1c[nH]c2ccc(O)cc12 [Serotonin],92.55 ± 0.43%

row,SMILES,uninfected host cell viability
1,O=C1Nc2cc(Cl)c(Cl)cc2N2CCNCC12 (centres undefined),80.7 ± 2.8%
2,CC(C)(C)NCC(O)COc1cccc2[nH]c(C#N)cc12 (centres undefined) [Cyanopindolol hemifumarate],83.4 ± 2.1%
3,C[C@@H]1CC[C@H]2[C@@H](C)C(=O)O[C@@H]3O[C@@]4(C)CC[C@@H]1[C@]32OO4 [Artemisinin],94.89 ± 0.53%
4,CN1[C@@H]2CC[C@H]1C[C@@H](OC(c1ccc(F)cc1)c1ccc(F)cc1)C2 [3α-Bis-(4-fluorophenyl) methoxytropane hydrochloride],79.5 ± 5.1%
5,O=[N+]([O-])c1cc(O)c(O)c([N+](=O)[O-])c1,95.7 ± 4.9%
6,CN[C@@H]1C[C@@H](c2ccc(Cl)c(Cl)c2)c2ccccc21 [Indatraline hydrochloride],78.7 ± 3%
7,O=C(O)Cc1cccnc1C(=O)O [Homoquinolinic acid],96.03 ± 0.14%
8,CN(C)CCN(C)CCc1ccc(Cl)c(Cl)c1 [BD 1047 dihydrobromide],84.5 ± 2%
9,N=C(N)NN [Aminoguanidine hydrochloride],88.2 ± 2.1%
10,C=CCN1C[C@H](C)N([C@H](c2ccc(C(=O)N(CC)CC)cc2)c2cccc(O)c2)C[C@H]1C,97.95 ± 0.16%
11,C=CCN1C[C@H](C)N([C@H](c2ccc(C(=O)N(CC)CC)cc2)c2cccc(OC)c2)C[C@H]1C,90.1 ± 1.5%
12,CCCCCCC[n+]1ccc(-c2cc[n+](CCCCCCC)cc2)cc1 [DHBP dibromide],91.6 ± 1.5%
13,Clc1ccc(C2=CCCC3CCC2N3)cn1 (centres undefined) [UB 165 fumarate],89 ± 1.1%
14,CN1Cc2ccccc2[C@@H]2c3cccc4[nH]cc(c34)C[C@H]21,86.3 ± 3.7%
15,O=C(N[C@H]1CN2CCC1CC2)c1ccc(Cl)cc1,84.4 ± 4.8%
16,N#Cc1ccc(N2CCN(C(=O)COc3ccc4[nH]cc(CCN)c4c3)CC2)cc1 [Donitriptan hydrochloride],98.31 ± 0.13%
17,COc1ccc2c(c1)c(CCN1CCOCC1)c(C)n2C(=O)c1cccc(Cl)c1Cl,85.3 ± 3%
18,C=C(C)[C@H]1CN[C@H](C(=O)O)[C@H]1CC(=O)O [Kainic acid],99.19 ± 0.44%
19,C[C@H](N)Cc1cnc[nH]1 [(S)-(+)-a-Methylhistamine dihydrobromide],84.3 ± 2%
20,c1ccc(CCCCN2CCC(c3ccccc3)CC2)cc1 [4-PPBP maleate],95.4 ± 2.2%
21,S=C(NC1CCCCC1)N1CCC(c2cnc[nH]2)CC1 [Thioperamide],90.1 ± 1.5%
22,N[C@@H](Cn1oc(=O)[nH]c1=O)C(=O)O [L-Quisqualic acid],96.3 ± 2.2%
